Test results published in PubChem BioAssay AID1963576 (National Center for Advancing Translational Sciences (NCATS), 2024).
Hit rate of the full screen: of about 46,000 compounds, about 60 (0.1%) were called active. Another 3% or so got no clear call; they are omitted. Calls follow the shape of the dose curve; as a rule, active = well fitted inhibition curve with a large enough effect; inconclusive = small, poorly fitted or top-dose-only effect; inactive = no such curve, though single readings can be large or run the other way. This is one part of the list.

Test: Primary qHTS assay for Inhibitors of ovarian cancer metastasis using an organotypic tumor microenvironment (TME) model. Also: nearly all actives have a fitted effect of over 65% in size.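 As to activity change, negative = inhibition: plate controls were DMSO wells for no effect and tomatine positive control wells for full effect.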
Settings: SKOV3ip1-GFP adhesion/invasion on 3D omental model, fluorescence; series mostly up to 45.8 µM; activity change, negative = inhibition: at the top concentration
Outline: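 Primary human omental fibroblast/mesothelial 3D culture pre-formed 48 h. SKOV3ip1-GFP cells added with compounds (0.36-46 umol/L), incubated 2 h RT/16 h 37 C, fixed; GFP cells quantified at 488/509 nm.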

Structure (SMILES) | outcome | activity change, negative = inhibition
O=S(=O)(c1ccccc1)c1nnn2c1nc(NCc1ccc(Cl)cc1)c1sccc12 | inactive | –
O=C1CCc2cc(S(=O)(=O)NCc3ccccc3Cl)cc3c2N1CC3 | inactive | –
CCN(CC)S(=O)(=O)c1ccc(C(=O)Nc2nc3ccc(Cl)cc3s2)cc1 | – | inactive: -1.85%
COc1cc(OC)cc(-c2nc3nc(C)c(CCC(=O)Nc4ccc(C)cc4C)c(C)n3n2)c1 | – | inactive: -3.82%
COc1ccccc1NC(=O)Cn1c(=O)c(CNc2ccccc2)cc2cc(OC)c(OC)cc21 | – | inactive: 8.08%
Cc1cccc(CNC(=O)c2ccc3c(c2)c(C)c(C)n3Cc2ccccc2)c1 | – | inactive: -8.94%
Cc1cc(C)cc(OCc2cc(=O)n3c(-c4ccccc4)csc3n2)c1 | inactive | –
COc1ccccc1C1C=C(c2ccc(C(C)C)cc2)Nc2nnnn21 (stereo not drawn) | – | inactive: 4.68%
CSc1ncc(Cl)c(C(=O)N(Cc2ccc(C)cc2)C2CCS(=O)(=O)C2)n1 (stereo not drawn) | – | inactive: -7.73%
Fc1ccc(-n2ncc3c(Nc4cccc(Cl)c4)ncnc32)cc1 | – | inactive: -18.6%
O=C(c1cnn(-c2ccc(F)cc2)c1-n1cccc1)N1CCN(c2ccc(Cl)cc2)CC1 | – | inactive: 5.39%
CCn1nc(C)c2c(-c3ccccc3)cc(=O)n(C(C)C(=O)NCc3ccccc3OC)c21 (stereo not drawn) | inactive | –
Cc1ccc(S(=O)(=O)c2nnn3c2nc(NCc2cccs2)c2sccc23)cc1 | – | inactive: 3.49%
O=C(CCn1ccc2cc(S(=O)(=O)N3CCCC3)ccc21)NCc1ccccc1F | – | inactive: 0.555%
COc1cccc(NC(=O)Cn2cc(S(=O)(=O)Cc3ccccc3F)c3ccccc32)c1 | – | inactive: -5.23%
CCc1ccc(NC(=O)CN2C(=O)CSc3ccc(S(=O)(=O)N(C)C)cc32)cc1 | – | inactive: 32.8%
Cc1ccc(C)c(NC(=O)Cn2cc(S(=O)(=O)Cc3cccc(Cl)c3)c3ccccc32)c1 | – | inactive: 9.52%
Cc1cc(OC(C)C(=O)N(Cc2ccc(N(C)C)cc2)Cc2ccco2)ccc1Cl (stereo not drawn) | – | inactive: 3.17%
Cc1ccccc1C(=O)Nc1cccc(OCc2cc(=O)n3cccc(C)c3n2)c1 | – | inactive: 2.02%
CCOc1ccc(NC(=O)N2CCN(c3ccc(Cl)c(Cl)c3)CC2)cc1 | – | inactive: -24.5%
CCn1cc(C(=O)NCCc2ccc(OC)c(OC)c2)c(=O)c2cc(S(=O)(=O)N(C)C3CCCCC3)ccc21 | inactive | –
COc1ccc(-c2noc(CN(C(=O)C(C)Oc3ccc(C)cc3)C(C)C)n2)cc1 (stereo not drawn) | – | inactive: 16.8%
COc1ccc2cc3c(N)nn(C(=O)c4ccccc4Cl)c3nc2c1 | inactive | –
O=C(NCc1ccccc1)c1ccc2c(c1)CCN2S(=O)(=O)c1ccc(Cl)cc1 | – | inactive: 8.45%

Structure (SMILES) | outcome | activity change, negative = inhibition
Cn1nnc2c(N3CCN(c4ccc(F)cc4)CC3)ncnc21 | – | inactive: -14.6%
COc1ccc(Cl)cc1NC(=O)Cn1ccn(-c2cc(C)cc(C)c2)c(=O)c1=O | inactive | –
Cc1ccccc1CNC(=O)CCS(=O)(=O)c1cc2c3c(c1)CCN3C(=O)CC2 | – | inactive: 6.56%
CCOc1cccc(CNC(=O)c2ccc(N3CCCC3)c(NC(=O)NCc3ccccc3)c2)c1 | – | inactive: 8.53%
CC(C)Oc1ccc(C(=O)N(Cc2ccc(N(C)C)cc2)C2CCS(=O)(=O)C2)cc1 (stereo not drawn) | – | inactive: 1.51%
CCc1ccc(NCc2cc3ccc(OC)cc3n(CC(=O)Nc3c(C)cc(C)cc3C)c2=O)cc1 | – | inactive: -1.02%
COc1ccccc1N1CCN(C(=O)CCS(=O)(=O)c2ccc3c(c2)oc(=O)n3C)CC1 | – | inactive: 0.694%
CCc1ccc(CNC(=O)Cn2nc(-c3ccc(C)cc3)ccc2=O)cc1 | inactive | –
Cc1ccc(Nc2sc(C(=O)c3ccccc3)c(N)c2S(=O)(=O)c2ccccc2)cc1Cl | – | inactive: -1.11%
Fc1ccc(-n2ncc3c(Nc4ccc5c(c4)OCCO5)ncnc32)cc1 | inactive | –
Cc1ccc(N2CCN(C(=O)c3cc4cc5ccc(C)cc5nc4s3)CC2C)cc1 (stereo not drawn) | inactive | –
COc1ccccc1NC(=O)c1oc2ccccc2c1NC(=O)Cc1ccccc1 | – | inactive: -14.1%
CCOC(=O)c1nc(Nc2ccc(C(=O)OC(C)C)cc2)c2ccccc2n1 | – | inactive: -10.8%
COc1ccc(O)c(C2=Nc3ccccc3N=C(c3ccccc3)C2)c1 | – | inactive: -5.73%
COc1cc(C(=O)NCCc2csc(-c3ccc(Cl)cc3)n2)cc(OC)c1OC | – | inactive: 2.63%
COc1ccc(-c2noc(CSc3nnc(C)n3-c3cccc(C)c3)n2)cc1 | inactive | –
CNC(=O)c1ccc2c(c1)N(Cc1cc(C)ccc1C)C(=O)c1ccccc1S2 | inactive | –
O=C(CN1C(=O)CC(c2ccccc2)=Nc2ccccc21)Nc1ccc(Br)cc1 | – | inactive: -5.51%
O=C(NCCc1ccccc1)c1ccc(Nc2nc3ccccc3n3nnnc23)cc1 | – | inactive: -9.84%
Cc1ccc2c(c1)N(C(=O)Nc1cccc3c1CCCC3)CCO2 | – | inactive: -2.17%
CCCN1CCN(C(=O)Cn2c(-c3cccs3)cc3cc(F)ccc32)CC1 | inactive | –
Cc1cccc(CCNC(=O)c2cc3c(s2)-c2c(C)cccc2OC3)c1 | – | inactive: -16.6%
COc1ccc(CNC(=O)c2ccc(-c3nc(CSc4ccc(C)cc4)c(C)o3)cc2)c(OC)c1 | inactive | –
CCOC(=O)c1c(NC(=O)CSc2cn(CCNC(=O)c3ccc(OC)cc3)c3ccccc23)sc2c1CCCC2 | – | inactive: -4.44%
